Measured values from paper PMC9911399, “Two distinct binding modes provide the RNA-binding protein RbFox with extraordinary sequence specificity”.
Positions count from the first letter of the chain named. The list shows a part of the results.

T1: RBFOX1 RRM RbFoxmut (Fox-RRM*) (Homo sapiens, UniProt Q9NWB1 109-208, R118D;E147R;N151S;E152T)
T1 sequence: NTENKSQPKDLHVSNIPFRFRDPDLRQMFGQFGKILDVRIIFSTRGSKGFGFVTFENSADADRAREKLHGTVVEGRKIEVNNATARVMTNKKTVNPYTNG

B1: AUCGAUA (DNA:RNA)
RNA: GGGAGACCGGAAUUCAGAUUGUCCAUCGAUAUUAAAUCCCGUCGUAGCCACCA
DNA 1: CAATCTGAATTCCGGTCTCCC
DNA 2: TGGTGGCTACGACGGGATT
B2: UCAACCU (DNA:RNA)
RNA: GGGAGACCGGAAUUCAGAUUGUCCUCAACCUUUAAAUCCCGUCGUAGCCACCA
DNA 1: CAATCTGAATTCCGGTCTCCC
DNA 2: TGGTGGCTACGACGGGATT
B3: CAAGAGU (DNA:RNA)
RNA: B1 RNA with A25C, U26A, C27A, U30G, A31U
DNA 1: CAATCTGAATTCCGGTCTCCC
DNA 2: TGGTGGCTACGACGGGATT
B4: GCUCCAG (DNA:RNA)
RNA: B2 RNA with U25G, A27U, A28C, C30A, U31G
DNA 1: CAATCTGAATTCCGGTCTCCC
DNA 2: TGGTGGCTACGACGGGATT
B5: AUAAUUG (DNA:RNA)
RNA: B1 RNA with C27A, G28A, A29U, A31G
DNA 1: CAATCTGAATTCCGGTCTCCC
DNA 2: TGGTGGCTACGACGGGATT
B6: UCACCCA (DNA:RNA)
RNA: B2 RNA with A28C, U31A
DNA 1: CAATCTGAATTCCGGTCTCCC
DNA 2: TGGTGGCTACGACGGGATT
B7: UAGCACG (DNA:RNA)
RNA: B2 RNA with C26A, A27G, A28C, C29A, U31G
DNA 1: CAATCTGAATTCCGGTCTCCC
DNA 2: TGGTGGCTACGACGGGATT
B8: AAUGUCU (DNA:RNA)
RNA: B1 RNA with U26A, C27U, A29U, U30C, A31U
DNA 1: CAATCTGAATTCCGGTCTCCC
DNA 2: TGGTGGCTACGACGGGATT
B9: GCUUCUA (DNA:RNA)
RNA: B1 RNA with A25G, U26C, C27U, G28U, A29C
DNA 1: CAATCTGAATTCCGGTCTCCC
DNA 2: TGGTGGCTACGACGGGATT
B10: AAAGUGA (DNA:RNA)
RNA: B1 RNA with U26A, C27A, A29U, U30G
DNA 1: CAATCTGAATTCCGGTCTCCC
DNA 2: TGGTGGCTACGACGGGATT
B11: UUACCUC (DNA:RNA)
RNA: B2 RNA with C26U, A28C, C30U, U31C
DNA 1: CAATCTGAATTCCGGTCTCCC
DNA 2: TGGTGGCTACGACGGGATT
B12: UACACAC (DNA:RNA)
RNA: B2 RNA with C26A, A27C, C30A, U31C
DNA 1: CAATCTGAATTCCGGTCTCCC
DNA 2: TGGTGGCTACGACGGGATT
B13: UUCUUAA (DNA:RNA)
RNA: B1 RNA with A25U, G28U, A29U, U30A
DNA 1: CAATCTGAATTCCGGTCTCCC
DNA 2: TGGTGGCTACGACGGGATT
B14: AAAGCGA (DNA:RNA)
RNA: B1 RNA with U26A, C27A, A29C, U30G
DNA 1: CAATCTGAATTCCGGTCTCCC
DNA 2: TGGTGGCTACGACGGGATT
B15: UACUGCA (DNA:RNA)
RNA: B1 RNA with A25U, U26A, G28U, A29G, U30C
DNA 1: CAATCTGAATTCCGGTCTCCC
DNA 2: TGGTGGCTACGACGGGATT
B16: AAAAGCG (DNA:RNA)
RNA: B2 RNA with U25A, C26A, C29G, U31G
DNA 1: CAATCTGAATTCCGGTCTCCC
DNA 2: TGGTGGCTACGACGGGATT
B17: UAAACGC (DNA:RNA)
RNA: B2 RNA with C26A, C30G, U31C
DNA 1: CAATCTGAATTCCGGTCTCCC
DNA 2: TGGTGGCTACGACGGGATT
B18: GGCUCAU (DNA:RNA)
RNA: B2 RNA with U25G, C26G, A27C, A28U, C30A
DNA 1: CAATCTGAATTCCGGTCTCCC
DNA 2: TGGTGGCTACGACGGGATT
B19: GCCUGGA (DNA:RNA)
RNA: B1 RNA with A25G, U26C, G28U, A29G, U30G
DNA 1: CAATCTGAATTCCGGTCTCCC
DNA 2: TGGTGGCTACGACGGGATT
B20: ACAACUC (DNA:RNA)
RNA: B2 RNA with U25A, C30U, U31C
DNA 1: CAATCTGAATTCCGGTCTCCC
DNA 2: TGGTGGCTACGACGGGATT
B21: UGUCCCA (DNA:RNA)
RNA: B2 RNA with C26G, A27U, A28C, U31A
DNA 1: CAATCTGAATTCCGGTCTCCC
DNA 2: TGGTGGCTACGACGGGATT
B22: GCUGGAC (DNA:RNA)
RNA: B1 RNA with A25G, U26C, C27U, A29G, U30A, A31C
DNA 1: CAATCTGAATTCCGGTCTCCC
DNA 2: TGGTGGCTACGACGGGATT
B23: CCAUGAU (DNA:RNA)
RNA: B2 RNA with U25C, A28U, C29G, C30A
DNA 1: CAATCTGAATTCCGGTCTCCC
DNA 2: TGGTGGCTACGACGGGATT
B24: UUCAUGU (DNA:RNA)
RNA: B2 RNA with C26U, A27C, C29U, C30G
DNA 1: CAATCTGAATTCCGGTCTCCC
DNA 2: TGGTGGCTACGACGGGATT
B25: CGUCUGU (DNA:RNA)
RNA: B2 RNA with U25C, C26G, A27U, A28C, C29U, C30G
DNA 1: CAATCTGAATTCCGGTCTCCC
DNA 2: TGGTGGCTACGACGGGATT
B26: AUAGCAA (DNA:RNA)
RNA: B1 RNA with C27A, A29C, U30A
DNA 1: CAATCTGAATTCCGGTCTCCC
DNA 2: TGGTGGCTACGACGGGATT
B27: GCACCGG (DNA:RNA)
RNA: B2 RNA with U25G, A28C, C30G, U31G
DNA 1: CAATCTGAATTCCGGTCTCCC
DNA 2: TGGTGGCTACGACGGGATT
B28: UGCGGUA (DNA:RNA)
RNA: B1 RNA with A25U, U26G, A29G
DNA 1: CAATCTGAATTCCGGTCTCCC
DNA 2: TGGTGGCTACGACGGGATT
B29: CCCGUUU (DNA:RNA)
RNA: B1 RNA with A25C, U26C, A29U, A31U
DNA 1: CAATCTGAATTCCGGTCTCCC
DNA 2: TGGTGGCTACGACGGGATT
B30: ACUAAUA (DNA:RNA)
RNA: B1 RNA with U26C, C27U, G28A
DNA 1: CAATCTGAATTCCGGTCTCCC
DNA 2: TGGTGGCTACGACGGGATT
B31: GGCCGAG (DNA:RNA)
RNA: B1 RNA with A25G, U26G, G28C, A29G, U30A, A31G
DNA 1: CAATCTGAATTCCGGTCTCCC
DNA 2: TGGTGGCTACGACGGGATT

These binders were tested against T1, RBFOX1 RRM RbFoxmut (Fox-RRM*) (assay: EMSA; HiTS-Eq, 1 nM pool, 10 min; buffer printed only for the single-RNA assays: 10 mM Tris pH 7.5, 150 mM NaCl, 3.4 mM EDTA, 0.001% NP-40, 30 C). Settings: tags: His6 N-terminal (pET28a); label: 5' 32P.
Procedure, shortened: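 Purified wild-type or mutant RbFox RRM at increasing concentrations was equilibrated with 1 nM of 5′-radiolabelled RNA carrying 7 randomized nucleotides for 10 min in 50 µL. Unbound RNA was separated by 8% native PAGE and sequenced. Relative association constants came from read-count changes of each RNA species compared with the control reaction, normalised to the cognate motif.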
In the case of B1, the binding signal is reported as 0.099 KA relative to UGCAUGU.
B2 was tested, and the binding signal was 0.0531 KA relative to UGCAUGU.
B3 was tested, and the binding signal was 0.124 KA relative to UGCAUGU.
B4 was tested, and the binding signal was 0.113 KA relative to UGCAUGU.
For B5, the binding signal was 0.109 KA relative to UGCAUGU.
For B6, the binding signal was 0.0824 KA relative to UGCAUGU.
In the case of B7, the binding signal is reported as 0.24 KA relative to UGCAUGU.
In the case of B8, the binding signal is reported as 0.0727 KA relative to UGCAUGU.
With B9 the binding signal was 0.134 KA relative to UGCAUGU.
For B10, the binding signal was 0.0773 KA relative to UGCAUGU.
In the case of B11, the binding signal is reported as 0.0646 KA relative to UGCAUGU.
B12 was tested, and the binding signal was 0.0702 KA relative to UGCAUGU.
For B13, the binding signal was 0.101 KA relative to UGCAUGU.
With B14 the binding signal was 0.0522 KA relative to UGCAUGU.
With B15 the binding signal was 0.153 KA relative to UGCAUGU.
For B16, the binding signal was 0.0886 KA relative to UGCAUGU.
In the case of B17, the binding signal is reported as 0.0552 KA relative to UGCAUGU.
With B18 the binding signal was 0.0932 KA relative to UGCAUGU.
In the case of B19, the binding signal is reported as 0.0891 KA relative to UGCAUGU.
In the case of B20, the binding signal is reported as 0.0564 KA relative to UGCAUGU.
For B21, the binding signal was 0.0792 KA relative to UGCAUGU.
B22 was tested, and the binding signal was 0.0737 KA relative to UGCAUGU.
B23 was tested, and the binding signal was 0.104 KA relative to UGCAUGU.
B24 was tested, and the binding signal was 0.157 KA relative to UGCAUGU.
With B25 the binding signal was 0.159 KA relative to UGCAUGU.
B26 was tested, and the binding signal was 0.0747 KA relative to UGCAUGU.
For B27, the binding signal was 0.102 KA relative to UGCAUGU.
For B28, the binding signal was 0.187 KA relative to UGCAUGU.
With B29 the binding signal was 0.0655 KA relative to UGCAUGU.
B30 was tested, and the binding signal was 0.139 KA relative to UGCAUGU.
B31 was tested, and the binding signal was 0.106 KA relative to UGCAUGU.
